In the assay the target is T1, soluble recombinant human IL-1RI (corresponding to the extracellular domain of IL-1RI) (human, UniProt P14778 18-336).
T1 construct: extracellular domain; also called interleukin-1 receptor I; immobilized soluble IL-1RI
T1 sequence (looked up): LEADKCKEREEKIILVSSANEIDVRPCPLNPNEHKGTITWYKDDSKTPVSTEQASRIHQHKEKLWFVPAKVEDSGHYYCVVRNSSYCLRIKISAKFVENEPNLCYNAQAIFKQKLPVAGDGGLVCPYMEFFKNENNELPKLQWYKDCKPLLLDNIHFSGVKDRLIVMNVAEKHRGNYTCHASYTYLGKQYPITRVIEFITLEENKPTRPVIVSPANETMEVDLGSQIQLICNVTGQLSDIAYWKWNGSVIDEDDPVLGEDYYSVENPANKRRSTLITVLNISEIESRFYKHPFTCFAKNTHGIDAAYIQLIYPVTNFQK
Kind of assay: SPR (Reichert SR7000DC), immobilized soluble human IL-1RI. The procedure: The binding properties of proteins for soluble recombinant human IL-1RI (corresponding to the extracellular domain of IL-1RI) were evaluated using surface plasmon resonance with a Reichert SR7000DC Dual Channel SPR system. Binding was evaluated in phosphate buffered saline with 0.005% Tween 20. […] Thus, the P01 protein bound to IL-1RI with a greater affinity than did IL-1β under similar conditions.

B1: IL-1Ra (human) (ligand)
chain: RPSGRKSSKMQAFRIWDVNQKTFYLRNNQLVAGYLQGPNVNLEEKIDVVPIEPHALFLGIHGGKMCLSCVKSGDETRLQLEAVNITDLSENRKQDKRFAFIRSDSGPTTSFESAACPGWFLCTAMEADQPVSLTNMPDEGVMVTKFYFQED
notes: also called IL-1 receptor antagonist
Consider B1, for which the Kd – broadly, the equilibrium constant for the complex coming apart – turned out to be 0.326 nM; the koff (usually the rate constant with which the complex falls apart) amounted to 6.58e-05 s⁻¹; the kon (usually the second-order rate constant of association) stood at 201000 M⁻¹ s⁻¹.
